Test results published in the supplement of paper PMC12217912.
The other results are listed elsewhere or left out. Sequences were assembled here from the parent chain. Values near 0.05 are background.

B1: TEV protease; numbered along this chain (parent)
chain: MGESLFKGPRDYNPISSSICHLTNESDGHTTSLYGIGFGPFIITNKHLFRRNNGTLVVQSLHGVFKVKDTTTLQQHLVDGRDMIIIRMPKDFPPFPQKLKFREPQREERICLVTTNFQTKSMSSMVSDTSCTFPSGDGIFWKHWIQTKDGQCGSPLVSTRDGFIVGIHSASNFTNTNNYFTSVPKNFMELLTNQEAQQWVSGWRLNADSVLWGGHKVFMVKPEEPFQPVKEATQL

Variants of: B1
Assay: raw area under fraction-flipped curve 0-4 h after induction (AUC4h, not background-subtracted), DNA-recorder readout of cleavage of the substrate (dimensionless); higher = more cleavage of the substrate by the protease variant
Details: temperature: 34 °C; time window: 0-4 h after rhamnose induction
Procedure: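 In vivo DNA recorder in E. coli TOP10(DE3) ΔrhaA at 34 °C. Each TEVp single-site mutant (parent TEVp 0) is paired with a single-site variant of the 7-mer TEVs (canonical ENLYFQ|S). The substrate sits between flexible linkers in a Bxb1-sfGFP-TEVs-SsrA fusion, so cleavage stabilises Bxb1 and speeds flipping of a recombination array, read by NGS. The value is the raw area under the fraction-flipped curve over 0-4 h after rhamnose induction (AUC4h), with ≥20 reads per time point. It is not background-subtracted; inactive controls average about 0.047.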
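Also: Bxb1 expression induced with 0.2% (w/v) L-rhamnose at OD600 near 0.5, cultures sampled hourly, flipped fraction per protease–substrate barcode pair counted by paired-end Illumina sequencing.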

Variant	area with substrate ENLYFQA	area with substrate ENLYFQC	area with substrate ENLYFQD	area with substrate ENLYFQF	area with substrate ENLYFQG	area with substrate ENLYFQI	area with substrate ENLYFQK	area with substrate ENLYFQL	area with substrate ENLYFQM	area with substrate ENLYFQN	area with substrate ENLYFQQ	area with substrate ENLYFQR	area with substrate ENLYFQS	area with substrate ENLYFQT	area with substrate ENLYFQW	area with substrate ENLYFQH	area with substrate ENLYFQP	area with substrate ENLYFQV	area with substrate ENLYFQY	area with substrate ENLYFQE
D149M	0.0991	0.105	0.0623	0.0606	0.0861	0.059	0.0562	0.0772	0.0748	0.0576	0.0628	0.0508	0.0894	0.0539	0.0634	–	–	–	–	–
G150E	0.0368	0.061	0.0627	0.0508	0.0759	–	0.0609	0.0529	–	0.0517	0.0624	0.058	0.0578	0.0613	0.0522	0.0479	0.0586	0.0537	0.067	–
G150W	0.052	0.0535	0.0576	0.0655	0.059	0.0608	0.0574	0.0475	0.0528	0.0416	0.0631	0.056	0.0592	0.0599	0.0502	0.0536	0.0608	–	0.0581	0.0392
C152D	0.0588	0.0606	–	0.0452	–	0.0624	0.0573	0.0562	0.0533	0.0571	–	–	0.0583	–	0.0538	–	0.069	0.0548	–	–
C152E	0.0598	0.0626	–	0.0549	0.0538	0.0442	0.0534	0.0541	0.0643	0.0489	0.0586	0.0673	0.0603	–	0.0512	0.0404	–	0.0599	–	0.0588
C152F	0.0615	0.0439	0.0628	0.0516	0.0521	–	0.0684	0.0531	0.0627	0.0359	0.0191	0.0623	0.0605	0.06	0.0564	0.0559	–	0.0391	0.054	0.052
C152G	0.0653	0.059	0.0584	–	0.0545	0.0647	0.0575	0.0534	0.0574	0.0624	0.0569	0.0607	0.0604	0.0553	0.048	0.0635	0.0599	0.0579	0.0507	–
C152I	0.0507	0.0566	–	0.0508	0.0496	0.0633	0.048	0.0493	0.0653	0.0268	–	0.0614	0.0612	0.0477	0.0567	0.0546	0.0635	0.0449	0.0624	–
C152L	0.0595	0.0568	–	–	0.0591	–	0.0658	0.0623	–	0.0623	–	–	0.0611	0.0711	0.0502	0.0943	–	–	0.0462	–
C152M	0.0532	–	–	0.0608	–	0.0548	0.0665	–	–	0.0598	–	–	0.0576	–	–	–	0.0558	0.0349	0.0765	–
C152W	0.0629	0.0436	0.0663	0.032	0.0578	–	0.059	0.0542	0.0588	0.0556	–	0.0613	0.0584	0.0449	0.0537	0.0614	0.0673	0.0639	–	–
V157F	0.079	0.107	–	0.0622	0.0924	0.0602	0.0583	0.047	0.0791	–	–	0.0615	0.0853	0.0533	0.0422	0.0769	–	0.0607	0.0269	–
R160D	0.102	0.125	–	0.0746	0.09	0.067	0.0598	0.0718	0.0968	0.0901	–	0.0622	0.108	0.0633	0.0627	–	0.0569	0.0622	0.0758	–
R160I	0.0711	0.113	0.0595	–	0.109	0.0469	0.0618	0.0634	0.0891	0.0753	0.0896	0.0591	0.0943	0.0754	0.0548	–	0.0653	0.0542	0.0746	–
R160N	0.102	0.187	–	0.0888	–	–	0.0729	–	0.0902	0.0784	–	0.0614	0.108	–	–	–	–	–	–	–
R160V	0.0922	–	0.0773	0.0777	0.146	0.0539	–	0.0598	0.0948	0.0747	0.0745	0.0603	0.103	0.0524	0.073	0.0799	0.0531	–	0.0541	0.0385
D161V	0.0617	0.0601	0.058	0.057	0.0605	0.0524	0.0454	0.0488	0.0458	0.0583	0.0406	0.0378	0.0567	0.0579	0.0516	0.0476	0.0892	0.0442	0.0582	–
I164A	0.0739	0.0698	–	–	–	0.066	0.0539	0.0527	0.0542	0.057	0.039	0.0556	0.0634	0.0668	0.0486	0.0727	0.0549	–	0.0571	–
V165E	0.055	–	–	0.0627	0.0285	0.0643	0.0569	0.0514	0.0526	0.0467	0.0399	0.0539	0.055	0.06	–	0.0773	0.0521	0.0541	0.0587	–
I167K	0.0733	0.0576	–	0.0442	0.0511	0.0488	0.0599	0.0515	0.0417	0.0507	0.0577	0.0483	0.0551	0.0518	0.0557	0.0548	0.071	0.0663	0.0512	–
H168D	0.0518	0.0526	0.0328	0.0589	–	0.0632	0.0515	0.0561	–	0.061	–	0.0541	0.059	0.0553	0.0516	0.0607	0.0559	0.0596	0.0412	0.0566
H168E	0.0934	0.064	–	0.0389	0.075	0.0533	0.0538	0.0502	0.0595	0.0526	–	0.0563	0.0597	0.0618	0.0471	0.0495	–	–	0.0542	0.0729
H168F	0.052	0.0471	0.0599	0.0533	–	–	0.0535	0.0489	0.0488	0.057	–	0.0543	0.0588	0.0583	–	0.0312	0.0562	–	0.0652	0.0713
